{
  "source": "PubChem BioAssay AID624417",
  "about": "(National Center for Advancing Translational Sciences (NCATS), 2012)",
  "note": "Values joined by “and” are separate entries in the source; they are usually repeats but may differ in a detail not shown here. Identical values can stand only once. The whole screen tested about 410,000 compounds, of which about 6,400 (1.6%) were called active. The shares of active, inactive and inconclusive entries below differ from those in the screen. Calls come from the whole dose curve; as a rule, active = well fitted inhibition curve with a large enough effect; inconclusive = small, poorly fitted or top-dose-only effect; inactive = no such curve, though single readings can be large or run the other way. Potencies of inconclusive entries are doubtful fits and often do not repeat. Potency is the fitted concentration of half-maximal effect; tags give direction and shape of the fitted curve.",
  "data": [
    {"molecular_target": "Glucagon-like peptide 1 receptor (Homo sapiens) (UniProt P43220)", "sequence (P43220 whole entry, looked up)": "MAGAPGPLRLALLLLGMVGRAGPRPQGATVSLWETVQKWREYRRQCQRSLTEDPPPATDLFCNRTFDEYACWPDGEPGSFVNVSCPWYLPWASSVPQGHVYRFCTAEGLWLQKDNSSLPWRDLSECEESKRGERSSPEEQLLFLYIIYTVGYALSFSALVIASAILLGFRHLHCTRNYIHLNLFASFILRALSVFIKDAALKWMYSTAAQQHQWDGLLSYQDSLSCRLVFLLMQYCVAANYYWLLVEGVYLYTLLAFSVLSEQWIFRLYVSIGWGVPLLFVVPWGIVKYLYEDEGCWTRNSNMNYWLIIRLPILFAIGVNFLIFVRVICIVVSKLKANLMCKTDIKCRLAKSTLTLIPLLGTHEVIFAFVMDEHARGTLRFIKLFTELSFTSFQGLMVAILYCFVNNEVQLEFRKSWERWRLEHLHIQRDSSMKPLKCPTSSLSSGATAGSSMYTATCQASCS", "assay": "qHTS of GLP-1 Receptor Inverse Agonists (Inhibition Mode); note: nearly all actives have a fitted effect of over 55% in size", "details": "HEK293 GLP-1R CRE-luciferase, luminescence, 24 h, GLP-1R form is constitutively active; series mostly up to 38.3 µM", "how_it_was_run": "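Assay principle: reduced luminescence from a cAMP-responsive reporter in HEK293 cells co-expressing a constitutively active GLP-1R. Conditions: 24 hr compound incubation, 37 deg C, 5% CO2.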", "values": [
      {"smiles": "C=C1SC(=Nc2ccccc2Cl)N(C(=O)c2sc3ccccc3c2Cl)C1(C)C", "Potency": "inconclusive: 10 µM [inhibitor, partial curve, poor fit]"},
      {"smiles": "COc1cc(CC(=O)NCCc2ccc(S(N)(=O)=O)cc2)cc(OC)c1OC", "Potency": "inconclusive: 12.6 µM [inhibitor, partial curve, poor fit]"},
      {"smiles": "O=C(CN1CCC(n2nnc3cc(F)ccc32)CC1)NC1CC1", "Potency": "inactive"},
      {"smiles": "CCOCC(=O)Nc1nc2ccc(OCC)cc2s1", "Potency": "inactive"},
      {"smiles": "Cc1cc(-c2cc(C(=O)NCc3ccccc3)on2)nc(NC2CCCC2)n1", "Potency": "inconclusive: 28.2 µM [inhibitor, single point]"},
      {"smiles": "O=S(=O)(Nc1cccc(-c2ccc(N3CCCCC3)nn2)c1)c1ccc(Cl)s1", "Potency": "inconclusive: 28.2 µM [inhibitor, single point]"},
      {"smiles": "Cc1ccc2nc(SCCCCOc3ccccc3)[nH]c2c1", "Potency": "inconclusive: 10 µM [inhibitor, partial curve, poor fit]"},
      {"smiles": "Cc1c(C(=O)N(C)c2cccc(C(F)(F)F)c2)sc2nc3n(c(=O)c12)CCCCC3", "Potency": "inactive"},
      {"smiles": "COC(=O)c1cc(C(=O)N2CCN(c3cccc(C)c3C)CC2)cc([N+](=O)[O-])c1", "Potency": "active: 3.98 µM"},
      {"smiles": "CN(Cc1ccccc1F)c1nc(-c2cccnc2)nc2ccccc12", "Potency": "inconclusive: 10 µM [inhibitor, partial curve, poor fit]"},
      {"smiles": "C=CCn1c(SCc2csc(-c3ccc(Cl)cc3)n2)nnc1-c1ccccc1OC", "Potency": "inconclusive: 6.31 µM [inhibitor, partial curve, poor fit]"},
      {"smiles": "CCCCCCCNC(=O)C1(CC2CC(c3ccc(Cl)cc3)=NO2)CCNCC1", "note": "(stereo unspecified)", "Potency": "inconclusive: 10 µM [inhibitor, partial curve, poor fit]"},
      {"smiles": "Cc1cc(C)c(C#N)c(N2CCN(Cc3ccc4c(c3)OCO4)CC2)n1", "Potency": "inconclusive: 28.2 µM [inhibitor, single point]"},
      {"smiles": "CCCCNc1c(-c2ccc(OC)c(SC(C)CC)c2)nc2ccc(C)cn12", "note": "(stereo unspecified)", "Potency": "inconclusive: 28.2 µM [inhibitor, single point] and inconclusive: 11.2 µM [inhibitor, partial curve, poor fit]"},
      {"smiles": "Cc1cccc(C)c1NC(=S)NCCSc1ccc(Cl)cc1", "Potency": "inconclusive: 11.2 µM [inhibitor, single point]"},
      {"smiles": "Cc1ccc(C)c(/C=C/C(=O)c2ccccc(=O)c2O)c1", "Potency": "inconclusive: 1.26 µM [inhibitor, full curve, poor fit]"},
      {"smiles": "CC(Nc1ccc(Br)cc1)C(=O)N/N=C/c1ccccc1OCc1ccccc1", "note": "(stereo unspecified)", "Potency": "inconclusive: 11.2 µM [inhibitor, partial curve, poor fit]"},
      {"smiles": "Cc1ccc2c(Cl)cc(Cl)c(OCC(=O)NC(C)(C)C)c2n1", "Potency": "inconclusive: 17.8 µM [inhibitor, single point]"},
      {"smiles": "CC(C)CCNC(=O)c1cc(-c2cccs2)nc2ccccc12", "Potency": "inconclusive: 12.6 µM [inhibitor, partial curve]"},
      {"smiles": "O=C(Nc1ncc(Cc2cccc(C(F)(F)F)c2)s1)c1ccc(-c2cccc([N+](=O)[O-])c2)o1", "Potency": "inconclusive: 2.51 µM [inhibitor, partial curve, poor fit]"},
      {"smiles": "Cc1cc(N/N=C\\c2ccc(Br)cc2)nc(-n2nc(C)cc2C)n1", "Potency": "inconclusive: 0.501 µM [inhibitor, full curve, poor fit]"},
      {"smiles": "COc1cccc(NC(=O)C(c2ccccc2)N2CCCCC2)c1", "note": "(stereo unspecified)", "Potency": "inconclusive: 28.2 µM [inhibitor, single point]"},
      {"smiles": "CCOC(=O)C1(CCOc2ccccc2)CCN(Cc2ccc(O)c(Cl)c2)CC1", "Potency": "inconclusive: 12.6 µM [inhibitor, partial curve, poor fit]"},
      {"smiles": "Cc1nc(SCC(=O)N2CCCCCC2)c2c(=O)n(C)c(=O)n(CC(C)C)c2n1", "Potency": "inconclusive: 1 µM [inhibitor, full curve, poor fit]"},
      {"smiles": "Cc1ccc2c(c1)NC(=O)[C@@]1(C)[C@@H](c3ccccc3)[C@H]3COc4ccccc4[C@@H]3N1C2=O", "Potency": "inconclusive: 31.6 µM [inhibitor, single point]"},
      {"smiles": "CCC(c1nnnn1Cc1ccco1)N(CCc1ccccc1)Cc1cc2ccc(OC)cc2[nH]c1=O", "note": "(stereo unspecified)", "Potency": "inconclusive: 28.2 µM [inhibitor, single point]"},
      {"smiles": "CCN(CC)C(=O)c1cc(Cl)ccn1", "Potency": "inactive"},
      {"smiles": "O=C(N/N=C/c1cccnc1)c1cc(-c2ccc(Br)cc2)nc2ccccc12", "Potency": "inconclusive: 5.01 µM [inhibitor, full curve, poor fit]"},
      {"smiles": "COc1ccc(C(=O)CCN2CCc3cc(OC)c(OC)cc3C2)cc1", "Potency": "inconclusive: 28.2 µM [inhibitor, single point]"},
      {"smiles": "O=C(NCC(c1ccco1)N1CCc2ccccc21)C(=O)Nc1ccccc1F", "note": "(stereo unspecified)", "Potency": "inconclusive: 8.91 µM [inhibitor, partial curve, poor fit]"},
      {"smiles": "Cn1c(=O)c2cc(NC(=O)NCc3ccc(Cl)cc3Cl)ccc2n1Cc1ccccc1", "Potency": "inactive"},
      {"smiles": "O=c1c2ccccc2nc(-c2cccc(Cl)c2)n1O", "Potency": "inconclusive: 15.8 µM [inhibitor, single point]"},
      {"smiles": "O=c1[nH][nH]c2c1[C@H](c1ccc(Cl)cc1)O[C@H](C1CCCC1)C2", "Potency": "inconclusive: 8.91 µM [inhibitor, partial curve]"},
      {"smiles": "COc1ccccc1N1CCN(C(=O)Cc2c(C(=O)O)c(C)cn2C)CC1", "Potency": "inactive"},
      {"smiles": "COC(=O)c1cccc(NC(=S)Nc2ccc(Cl)c(Cl)c2)c1", "Potency": "inconclusive: 11.2 µM [inhibitor, partial curve, poor fit]"},
      {"smiles": "O=C(NCCc1ccccc1)C1CCCN(c2nc3ccccc3s2)C1", "note": "(stereo unspecified)", "Potency": "active: 10 µM"},
      {"smiles": "CSc1nn(Cc2ccc(Br)cc2)c(N(C(C)=O)C(C)=O)c1S(=O)(=O)c1ccccc1", "Potency": "inconclusive: 28.2 µM [inhibitor, single point]"},
      {"smiles": "CC(C)NC(=O)C1C(c2ccc(C(F)(F)F)cc2)=Nc2ccccc2N1C(=O)c1ccco1", "note": "(stereo unspecified)", "Potency": "inconclusive: 20 µM [inhibitor, single point]"},
      {"smiles": "CCN1CCN(C(CNS(=O)(=O)c2ccc(C)cc2)c2ccccc2)CC1", "note": "(stereo unspecified)", "Potency": "inconclusive: 4.47 µM [inhibitor, partial curve]"},
      {"smiles": "COc1ccc(CNCC(=O)Nc2cc(C)nn2-c2nc(C)cc(C)n2)cc1OC", "Potency": "inactive"},
      {"smiles": "O=C(Nc1nc2ccccc2[nH]1)c1cc2ccccc2o1", "Potency": "inconclusive: 25.1 µM [inhibitor, single point]"},
      {"smiles": "Cc1ccc(C)c(Cn2c(CN(C)Cc3ccccc3)nc3c2c(=O)n(C)c(=O)n3C)c1", "Potency": "inconclusive: 20 µM [inhibitor, single point]"},
      {"smiles": "Cc1ccc(S(=O)(=O)NCCc2c[nH]c3ccccc23)cc1", "Potency": "inconclusive: 11.2 µM [inhibitor, partial curve, poor fit]"},
      {"smiles": "COc1ccc(C(=O)N/N=C/c2c(C)nn(-c3ccccc3)c2OC)cc1", "Potency": "inconclusive: 8.91 µM [inhibitor, single point]"},
      {"smiles": "Cc1ccccc1Cn1cnc2c(cnn2C(C)(C)C)c1=O", "Potency": "inconclusive: 11.2 µM [inhibitor, single point]"},
      {"smiles": "CCCC12CN3CC(C)(CN(C1)C3c1cn(C)c3ccccc13)C2=O", "note": "(stereo unspecified)", "Potency": "inconclusive: 12.6 µM [inhibitor, single point]"},
      {"smiles": "COCCNc1nc(NCc2ccccc2)nc2ccsc12", "Potency": "inconclusive: 28.2 µM [inhibitor, single point]"},
      {"smiles": "CS(=O)(=O)c1sc2nc(-c3ccccc3)cc(-c3ccccc3)c2c1N", "Potency": "inconclusive: 12.6 µM [inhibitor, single point]"},
      {"smiles": "C=CCN(CC=C)C(=S)NC(=O)c1ccc(OC)cc1", "Potency": "inconclusive: 1 µM [inhibitor, full curve, poor fit]"},
      {"smiles": "O=C1c2ccccc2NC(c2ccccc2)N1Cc1ccccc1", "note": "(stereo unspecified)", "Potency": "inconclusive: 10 µM [inhibitor, partial curve, poor fit]"},
      {"smiles": "Cc1ccc(-n2c(C)cc(/C=N/NC(=O)c3ccncc3)c2C)cc1C", "Potency": "inconclusive: 2.51 µM [inhibitor, full curve, poor fit]"},
      {"smiles": "CCOC(=O)C1(Cc2ccc(OC)cc2)CCN(C(=O)c2ccoc2C)CC1", "Potency": "inconclusive: 8.91 µM [inhibitor, partial curve, poor fit]"},
      {"smiles": "C=CCN=C1S/C(=C\\c2ccc(N(C)C)cc2)C(=O)N1CC=C", "Potency": "inconclusive: 28.2 µM [inhibitor, single point]"},
      {"smiles": "O=C(CCSc1ccc(Cl)cc1)N1CCN(c2ccc(O)cc2)CC1", "Potency": "inconclusive: 1.26 µM [inhibitor, partial curve, poor fit]"},
      {"smiles": "COc1cccc(-c2nc(CS(=O)(=O)CC(=O)NCCCN3CC(C)CC(C)C3)c(C)o2)c1", "note": "(stereo unspecified)", "Potency": "inconclusive: 3.55 µM [inhibitor, partial curve, poor fit]"},
      {"smiles": "CC(C)CC(=O)NC(=S)Nc1cccc2nsnc12", "Potency": "inconclusive: 3.55 µM [inhibitor, partial curve, poor fit]"},
      {"smiles": "Clc1ccc(OCCSc2ncccn2)c(Br)c1", "Potency": "inconclusive: 28.2 µM [inhibitor, single point]"},
      {"smiles": "Cc1ccc(-c2csc(NC(=O)CN3CC(C)OC(C)C3)n2)cc1", "note": "(stereo unspecified)", "Potency": "inconclusive: 10 µM [inhibitor, partial curve, poor fit]"},
      {"smiles": "C[C@@H]1CN([C@@H](C)CO)C(=O)CCCn2cc(nn2)CO[C@H]1CN(C)S(=O)(=O)c1ccccc1C#N", "Potency": "inactive"},
      {"smiles": "CCOc1ccc(C2=C(C=Nc3c(C)n(C)n(-c4ccccc4)c3=O)C(c3ccc(F)cc3)c3ccccc3O2)cc1", "note": "(stereo unspecified)", "Potency": "inconclusive: 5.62 µM [inhibitor, partial curve, poor fit]"},
      {"smiles": "Cc1cc(C)n(-c2nc(NCCC(C)C)c3c4c(sc3n2)COC(C)(C)C4)n1", "Potency": "inconclusive: 3.16 µM [inhibitor, full curve, poor fit]"}
    ]}
  ]
}
